# Assay results from PubChem BioAssay AID1347073 (National Center for Advancing Translational Sciences (NCATS), 2019).
# Hit rate of the full screen: of about 45,000 compounds, about 200 (0.44%) were called active. Another 7% or so got no clear call; they are omitted. Calls come from the whole dose curve; as a rule, active = well fitted activation curve with a large enough effect; inconclusive = small, poorly fitted or top-dose-only effect; inactive = no such curve, though single readings can be large or run the other way. Some of the results follow.
# Experiment: qHTS of TDP-43 Inhibitors: NCGC Sytravon Library Screen; note: 0% is about no effect; nearly all actives have a fitted effect of over 55% in size
# Conditions: yeast TDP-43 toxicity rescue, BacTiter-Glo growth, 24 h; series mostly up to 46.1 µM; growth rescue (activation): at the top concentration
# Description: The goal of this project is to identify new chemical probes capable of reversing the toxicity associated with TDP-43 which is associated with frontotemporal lobar degeneration and amyotrophic lateral sclerosis. These compounds will provide a complementary approach to deciphering the tangled mechanisms of toxicity and protection that we have uncovered through genome-wide genetic screens and are beginning to uncover in a large-scale proteomics analysis with mass spectroscopy. To this end, a miniaturized assay was developed to be screened against the Molecular Libraries Small Molecule Repository (MLSMR) to discover TDP-43 inhibitors. Please note that in the set-up this yeast-based assay compounds that inhibit as TDP-43, have a read-out as activators. NIH Chemical Genomics Center [NCGC] NIH Molecular Libraries Probe Centers Network [MLPCN] Assay Submitter (PI): Susan Lindquist, Whitehead Institute/MIT MLPCN Grant: R21 NS060957
# Dispense 2.5 microL yeast galactose medium per 1536-well plate, pin compound, dispense 2.5 microL TDP-43 expressing yeast in galactose medium at OD600=0.02 (pregrown in raffinose medium to mid-log phase) per well, incubate for 24 hr at 30 deg C, and cell growth will be measured using 5 microL of Bactiter/Glo reagent to entire plate and read using Luminescence Protocol in ViewLux.
Compound,growth rescue (activation),Potency
COc1ccc(NC(=O)c2ccco2)cc1NC(=O)c1ccccc1F,inactive: -25.4%,–
Cc1ccc(OCC(=O)Nc2ccc(S(=O)(=O)N3CCCCC3)cc2)c([N+](=O)[O-])n1,inactive: 1.62%,–
Cc1cccc2c1cnn2C(=O)Nc1ccccc1Br,inactive: 7.03%,–
O=C1CC(c2ccccc2)CC(=O)C1=CN1CCCC1 (centres undefined),inactive: -26.8%,–
CCN(Cc1ccccc1)c1ccc(/C=N/NC(=S)NC(C)C)cc1,inactive: 26.1%,–
Cc1nc(SCCOc2ccccc2F)[nH]c(=O)c1Cc1ccccc1,–,inactive
O=C(Nc1nc2c(s1)CCCC2)c1cccc(S(=O)(=O)N2CCCc3ccccc32)c1,inactive: -11.9%,–
O=C(CSCc1ccccc1)N/N=C/c1cc2c(cc1Br)OCO2,inactive: -2.98%,–
C=CCNc1nc(Cl)nc(Nc2ccc(OC)cc2OC)n1,inactive: 11.8%,–
O=C(COC(=O)c1cc(S(=O)(=O)N2CCOCC2)c(Cl)cc1Cl)NCc1ccco1,inactive: 16.4%,–
COc1ccc(NC(=O)c2cc(-c3ccc(C)c(C)c3O)n[nH]2)cc1Cl,inactive: 13.6%,–
CCN(Cc1ccncc1)C(=O)CCc1nnc(CCc2ccc(OC)cc2)o1,inactive: 1.54%,–
O=C(CCN1C(=O)c2cccc3cccc(c23)C1=O)NC1CCS(=O)(=O)C1 (centres undefined),inactive: 29.2%,–
COc1cccc(CC(=O)Nc2cccc3ccccc23)c1,inactive: 16.2%,–
Cc1c(C)c2ccc(Oc3ccc([N+](=O)[O-])cc3C(F)(F)F)c(C)c2oc1=O,inactive: 32.3%,–
CC(=O)c1cccc(NC(=S)NC(=O)c2ccccc2Cl)c1,inactive: -4.16%,–
O=C1CC(N2CCN(c3ccccc3O)CC2)C(=O)N1Cc1ccccc1 (centres undefined),inactive: -11.5%,–
COCCNC(=O)C(c1ccc(O)cc1)N(Cc1ccco1)C(=O)CCC(=O)Nc1ccccn1 (centres undefined),inactive: -0.119%,–
CCOC(=O)C1(C)CCN1C(=O)c1cccc(C(F)(F)F)c1 (centres undefined),inactive: 16.8%,–
CCCCCCCCCCOC(=O)Cn1c(COc2ccc(OC)cc2)[n+](C)c2ccccc21,inactive: -88.5%,–
O=C(Nc1ccncc1)C1CC(=O)N(c2ccccc2)C1 (centres undefined),inactive: 4.12%,–
COc1ccc(N2CCN(C(=O)c3ccccc3NC(=O)c3ccccc3)CC2)cc1,inactive: 25.8%,–
CCn1ncc(CN2CCCC(CNC(=O)c3ccc(F)cc3)C2)c1C (centres undefined),inactive: 7.02%,–
O=C(c1cccc(F)c1)N1CCN(c2ccc([N+](=O)[O-])c(N3CCOCC3)c2)CC1,inactive: 16.1%,–
CN(C)c1oc(/C=C/c2cccs2)nc1S(=O)(=O)c1ccccc1,inactive: 11%,–
CCc1ccc(-c2nn(-c3ccccc3)cc2CSC(=N)N)cc1,inactive: -9.37%,–
COc1ccc(OC)c(NC(=O)CSc2nc3[nH]c(=O)[nH]c(=O)c3s2)c1,inactive: 14.6%,–

Compound,growth rescue (activation),Potency
COc1ccc2nc(/C(C#N)=C\c3ccc(C(=O)O)cc3)[nH]c2c1,inactive: 14.5%,–
CC(=O)Nc1nc(-c2ccc([N+](=O)[O-])cc2)cs1,inactive: 5.99%,–
Cn1c(O)c(N=NC(=O)c2cccc(S(=O)(=O)N3CCCCC3)c2)c2ccccc21,inactive: 11.7%,–
COc1cccc(NC(=O)CN(C)CC(=O)Nc2ccc(C)c([N+](=O)[O-])c2)c1,inactive: 22.1%,–
COCCN(Cc1cc2cc(C)ccc2n2nnnc12)C(=S)Nc1ccc(C)cc1,inactive: -3.63%,–
COc1ccccc1/C=N/OCc1ccc(C#N)cc1,inactive: 3.54%,–
Cc1ccc(-c2cn3ccc(C)cc3n2)cc1,inactive: 7.05%,–
NS(=O)(=O)c1ccc(CCNC(=S)NC(=O)c2ccccc2Br)cc1,inactive: -6.3%,–
COc1ccc(N=N/C(=C\O)C(=O)c2cccs2)cc1,inactive: 22.1%,–
Cc1ccc(OCCCC(=O)Nc2ccc(S(=O)(=O)Nc3ccccn3)cc2)cc1,inactive: 2.37%,–
CC(=O)N1C(=O)N(C)C2C1N(C(C)=O)C(=O)N2C (centres undefined),inactive: 10.6%,–
Cc1cccc(NC(=O)Cn2c(=O)n(CCCCCC(=O)NCc3ccc4c(c3)OCO4)c(=O)c3sccc32)c1,inactive: 5.83%,–
CCOC(=O)C1(CCc2ccccc2)CCN(C(=O)[C@@H]2C[C@@H](C)NC(=S)N2)CC1,inactive: -12.7%,–
COc1ccc(C(=O)Nc2ccc(N3CCCCC3)cc2)cc1Br,inactive: 9.18%,–
CC(C)CC(NC(=O)c1ccc(C#CC(C)(C)O)s1)C(=O)O (centres undefined),inactive: -2.77%,–
Cc1ccc(CCC(=O)Nc2ncc(Cc3cc(Cl)ccc3Cl)s2)o1,inactive: 16.3%,–
CCN(CC)C(=O)COc1ccc(/C(C)=N/NC(=O)c2ccccc2O)cc1,inactive: 2.45%,–
O=C(c1ccc2c(c1)N(Cc1ccccc1)C(=O)c1ccccc1S2(=O)=O)N1CCN(Cc2ccccc2)CC1,inactive: 12.9%,–
O=C(CSc1nnc(-c2ccccc2)n1-c1ccccc1)c1ccc[nH]1,inactive: 4.92%,–
CC(C)[C@H](NS(=O)(=O)c1ccc2c(c1)OCCO2)C(=O)OCC(=O)Nc1ccccc1Cl,inactive: 27.5%,–
O=C(OCC(=O)c1ccc[nH]1)c1ccc(C(F)(F)F)cc1,inactive: 9.59%,–
O=C(CSCc1cccc(Br)c1)NC1CC1,inactive: 32.3%,–
CSCCC(NS(=O)(=O)c1ccc(Cl)cc1)C(=O)OCc1cccc(Cl)c1 (centres undefined),inactive: -3.95%,–
O=C(O)c1ccccc1CSC1=NCCS1,inactive: 10.5%,–
C=CCSc1nc(C)c(CCC(C)C)c(=O)[nH]1,inactive: 29.3%,–
CCCC(=O)Nc1c(-c2cccc(C)c2)c(=O)c2ccccc2n1C,inactive: -4.02%,–
COc1ccc(NC(=O)CCC(=O)c2cccs2)cc1Cl,inactive: -11.8%,–
